Results from the supplement of paper PMC12217912.
Some of the results follow. The full chains were built here from the parent and the listed change. Inactive controls read about 0.05.

B1: TEV protease; numbered along this chain (parent)
chain: MGESLFKGPRDYNPISSSICHLTNESDGHTTSLYGIGFGPFIITNKHLFRRNNGTLVVQSLHGVFKVKDTTTLQQHLVDGRDMIIIRMPKDFPPFPQKLKFREPQREERICLVTTNFQTKSMSSMVSDTSCTFPSGDGIFWKHWIQTKDGQCGSPLVSTRDGFIVGIHSASNFTNTNNYFTSVPKNFMELLTNQEAQQWVSGWRLNADSVLWGGHKVFMVKPEEPFQPVKEATQL

Variants of: B1
Assay: raw area under fraction-flipped curve 0-4 h after induction (AUC4h, not background-subtracted), DNA-recorder readout of cleavage of the substrate (dimensionless); higher = more cleavage of the substrate by the protease variant
Details: temperature: 34 °C; time window: 0-4 h after rhamnose induction
Protocol: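 In vivo DNA recorder in E. coli TOP10(DE3) ΔrhaA at 34 °C. Each TEVp single-site mutant (parent TEVp 0) is paired with a single-site variant of the 7-mer TEVs (canonical ENLYFQ|S). The substrate sits between flexible linkers in a Bxb1-sfGFP-TEVs-SsrA fusion, so cleavage stabilises Bxb1 and speeds flipping of a recombination array, read by NGS. The value is the raw area under the fraction-flipped curve over 0-4 h after rhamnose induction (AUC4h), with ≥20 reads per time point. It is not background-subtracted; inactive controls average about 0.047.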
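Further: Bxb1 expression induced with 0.2% (w/v) L-rhamnose at OD600 near 0.5, cultures sampled hourly, flipped fraction per protease–substrate barcode pair counted by paired-end Illumina sequencing.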

MGESLFKGPRDYNPISSSICHLTNESDGHTTSLYGIGFGPFIITNPHLFRRNNGTLVVQSLHGVFKVKDTTTLQQHLVDGRDMIIIRMPKDFPPFPQKLKFREPQREERICLVTTNFQTKSMSSMVSDTSCTFPSGDGIFWKHWIQTKDGQCGSPLVSTRDGFIVGIHSASNFTNTNNYFTSVPKNFMELLTNQEAQQWVSGWRLNADSVLWGGHKVFMVKPEEPFQPVKEATQL [K46P]
area with substrate ENLYFAS: 0.0176 | area with substrate ENLYFCS: 0.0588 | area with substrate ENLYFFS: 0.0651 | area with substrate ENLYFHS: 0.059 | area with substrate ENLYFIS: 0.0538 | area with substrate ENLYFKS: 0.0389 | area with substrate ENLYFLS: 0.0619 | area with substrate ENLYFMS: 0.0466 | area with substrate ENLYFNS: 0.0567 | area with substrate ENLYFPS: 0.0546 | area with substrate ENLYFRS: 0.0529 | area with substrate ENLYFSS: 0.0501 | area with substrate ENLYFTS: 0.0723

MGESLFKGPRDYNPISSSICHLTNESDGHTTSLYGIGFGPFIITNKDLFRRNNGTLVVQSLHGVFKVKDTTTLQQHLVDGRDMIIIRMPKDFPPFPQKLKFREPQREERICLVTTNFQTKSMSSMVSDTSCTFPSGDGIFWKHWIQTKDGQCGSPLVSTRDGFIVGIHSASNFTNTNNYFTSVPKNFMELLTNQEAQQWVSGWRLNADSVLWGGHKVFMVKPEEPFQPVKEATQL [H47D]
area with substrate ENLYFAS: 0.0492 | area with substrate ENLYFCS: 0.0474 | area with substrate ENLYFDS: 0.0622 | area with substrate ENLYFES: 0.0619 | area with substrate ENLYFFS: 0.0668 | area with substrate ENLYFHS: 0.0077 | area with substrate ENLYFIS: 0.0569 | area with substrate ENLYFMS: 0.0625 | area with substrate ENLYFNS: 0.0624 | area with substrate ENLYFPS: 0.0612 | area with substrate ENLYFRS: 0.0665 | area with substrate ENLYFTS: 0.0426 | area with substrate ENLYFVS: 0.0609 | area with substrate ENLYFYS: 0.062

MGESLFKGPRDYNPISSSICHLTNESDGHTTSLYGIGFGPFIITNKFLFRRNNGTLVVQSLHGVFKVKDTTTLQQHLVDGRDMIIIRMPKDFPPFPQKLKFREPQREERICLVTTNFQTKSMSSMVSDTSCTFPSGDGIFWKHWIQTKDGQCGSPLVSTRDGFIVGIHSASNFTNTNNYFTSVPKNFMELLTNQEAQQWVSGWRLNADSVLWGGHKVFMVKPEEPFQPVKEATQL [H47F]
area with substrate ENLYFAS: 0.0559 | area with substrate ENLYFCS: 0.06 | area with substrate ENLYFDS: 0.0618 | area with substrate ENLYFES: 0.0527 | area with substrate ENLYFFS: 0.0602 | area with substrate ENLYFGS: 0.0608 | area with substrate ENLYFHS: 0.0629 | area with substrate ENLYFIS: 0.0632 | area with substrate ENLYFKS: 0.0701 | area with substrate ENLYFLS: 0.0629 | area with substrate ENLYFMS: 0.0537 | area with substrate ENLYFNS: 0.0522 | area with substrate ENLYFPS: 0.0521 | area with substrate ENLYFRS: 0.0524 | area with substrate ENLYFSS: 0.0576 | area with substrate ENLYFTS: 0.0616

MGESLFKGPRDYNPISSSICHLTNESDGHTTSLYGIGFGPFIITNKKLFRRNNGTLVVQSLHGVFKVKDTTTLQQHLVDGRDMIIIRMPKDFPPFPQKLKFREPQREERICLVTTNFQTKSMSSMVSDTSCTFPSGDGIFWKHWIQTKDGQCGSPLVSTRDGFIVGIHSASNFTNTNNYFTSVPKNFMELLTNQEAQQWVSGWRLNADSVLWGGHKVFMVKPEEPFQPVKEATQL [H47K]
area with substrate ENLYFAS: 0.0655 | area with substrate ENLYFCS: 0.0538 | area with substrate ENLYFES: 0.0634 | area with substrate ENLYFFS: 0.007 | area with substrate ENLYFHS: 0.0634 | area with substrate ENLYFKS: 0.0713 | area with substrate ENLYFLS: 0.0682 | area with substrate ENLYFMS: 0.0606 | area with substrate ENLYFPS: 0.0656 | area with substrate ENLYFTS: 0.0477 | area with substrate ENLYFWS: 0.0638

MGESLFKGPRDYNPISSSICHLTNESDGHTTSLYGIGFGPFIITNKLLFRRNNGTLVVQSLHGVFKVKDTTTLQQHLVDGRDMIIIRMPKDFPPFPQKLKFREPQREERICLVTTNFQTKSMSSMVSDTSCTFPSGDGIFWKHWIQTKDGQCGSPLVSTRDGFIVGIHSASNFTNTNNYFTSVPKNFMELLTNQEAQQWVSGWRLNADSVLWGGHKVFMVKPEEPFQPVKEATQL [H47L]
area with substrate ENLYFAS: 0.0578 | area with substrate ENLYFCS: 0.0525 | area with substrate ENLYFES: 0.0555 | area with substrate ENLYFFS: 0.0667 | area with substrate ENLYFGS: 0.06 | area with substrate ENLYFHS: 0.0416 | area with substrate ENLYFIS: 0.0451 | area with substrate ENLYFKS: 0.0709 | area with substrate ENLYFLS: 0.0796 | area with substrate ENLYFMS: 0.0602 | area with substrate ENLYFNS: 0.0539 | area with substrate ENLYFPS: 0.0638 | area with substrate ENLYFRS: 0.0488 | area with substrate ENLYFTS: 0.0152 | area with substrate ENLYFVS: 0.0805 | area with substrate ENLYFWS: 0.0525 | area with substrate ENLYFYS: 0.0675
